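Protocol summary: plate cells (96-well), add compound at 5 concentrations, incubate 48 h, interpolate endpoints linearly. The concentration for 50% growth inhibition is given as GI50.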 Certain results were filed several times, with different values. This list holds those alone. An entry can have further records. For some of these results: Records of one sample usually come from different ranges of test concentrations, not given here; a value can be the end of its range. Records carry a tag for their origin. Letters hold for one entry only. For some of these results: Values given together are repeated measurements (runs, samples, wells, individuals or studies).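 At the TGI there is no net growth.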
Tests used:
Test in all cases: NCI anticancer screen, dose series, 48 h
[1] = test system: COLO 205 colon
[2] = test system: OVCAR-5 ovarian
[3] = test system: CAKI-1 renal
[4] = test system: NCI-H522 lung
[5] = test system: OVCAR-4 ovarian
[6] = test system: MDA-N
[7] = test system: SF-268 CNS
[8] = test system: NCI-H226 lung
[9] = test system: HOP-92 NSCLC
[10] = test system: RPMI-8226 leukemia
[11] = test system: SK-MEL-28 melanoma
[12] = test system: SN12C renal
[13] = test system: RXF 393 renal
[14] = test system: M14 melanoma
[15] = test system: IGROV1 ovarian
[16] = test system: SNB-19 CNS
[17] = test system: SR leukemia
[18] = test system: SF-539 CNS
[19] = test system: MOLT-4 leukemia
[20] = test system: UO-31 renal
[21] = test system: NCI-H460 lung
[22] = test system: HCT-116 colon
[23] = test system: OVCAR-3 ovarian
[24] = test system: MALME-3M melanoma
[25] = test system: HCC-2998 colon
[26] = test system: NCI-H23 lung
[27] = test system: LOX IMVI melanoma
[28] = test system: A498 renal
[29] = test system: CCRF-CEM leukemia
[30] = test system: HT29 colon
[31] = test system: HCT-15 colon
[32] = test system: MDA-MB-231 breast
[33] = test system: HS 578T breast
[34] = test system: UACC-257 melanoma
[35] = test system: MCF7 breast
[36] = test system: MDA-MB-435
[37] = test system: UACC-62 melanoma
[38] = test system: U251 CNS
[39] = test system: KM12 colon
[40] = test system: HL-60(TB) leukemia
[41] = test system: EKVX NSCLC
[42] = test system: K-562 leukemia
[43] = test system: SK-MEL-2 melanoma

COc1ccc(-c2ccc3ncc4c(c3c2)n(-c2ccc(N3CCNCC3)c(C(F)(F)F)c2)c(=O)n4C)cn1
TGI [1]: 1.09 µM [sample A, mean of 3 tests] and 108 nM [sample B, mean of 2 tests] | TGI [2]: 1.23 µM [sample A, mean of 3 tests] and 98.3 nM [sample B, mean of 2 tests]

CC[C@@]1(O)C[C@H](OC2CC(N(C)C)C(OC3CC(O)C(OC4CCC(=O)C(C)O4)C(C)O3)C(C)O2)c2c(cc3c(c2O)C(=O)c2c(O)ccc(O)c2C3=O)[C@H]1C(=O)OC (some centres not stated)
TGI [3]: 0.0331 nM and 10.4 µM | TGI [4]: 1.88 nM and 23 nM | TGI [5]: 1.25 nM and 210 nM

COC1=C(C)C(=O)C2=C(C1=O)C(CO)N1C(C#N)C3CC4C(C1C2N1CCOC41)N3C (configuration not stated)
GI50 [6]: 3.15 nM, 55.2 nM [sample A, 1 test] and < 17.9 nM [sample B, mean of 2 tests] | GI50 [7]: 3.62 nM [1 test] and 40.7 nM [mean of 2 tests] | GI50 [8]: 2.04 nM [1 test] and 37.6 nM [mean of 2 tests] | TGI [8]: 4.81 nM, 265 nM, 163 nM [sample A] and 273 nM [sample B] | TGI [9]: 7.92 nM, 94.1 nM [sample A] and 65.8 nM [sample B] | TGI [10]: 28.1 nM [1 test] and 369 nM [mean of 3 tests] | GI50 [11]: 2.7 nM [1 test] and 28.5 nM [mean of 2 tests] | TGI [11]: 14.6 nM, 260 nM, 88.9 nM [sample A] and 3.2 µM [sample B] | GI50 [12]: 3.66 nM [sample A, 1 test] and 25.2 nM [sample A, mean of 2 tests] and 30 nM [sample A, mean of 5 tests] and < 10 nM [sample B, mean of 2 tests] | TGI [12]: 1.26 µM [sample A, mean of 2 tests] and 527 nM [sample A, mean of 5 tests] and < 27.5 nM [sample B, mean of 2 tests] | TGI [13]: 5.01 nM, 65.3 nM, 43.2 nM [sample A] and 59.3 nM [sample B] | GI50 [14]: 2.87 nM [sample A, 1 test] and 49.1 nM [sample A, mean of 5 tests] and < 11.2 nM [sample B, mean of 2 tests] | TGI [14]: 12.8 nM [sample A, 1 test] and 149 nM [sample A, mean of 5 tests] and < 25.2 nM [sample B, mean of 2 tests] | TGI [15]: 4.74 µM, 450 nM [sample A] and 10.7 µM [sample B] | GI50 [16]: 13.1 nM [sample A, 1 test] and 61.8 nM [sample A, mean of 2 tests] and 153 nM [sample A, mean of 5 tests] and < 20.7 nM [sample B, mean of 2 tests] | GI50 [3]: 0.871 nM [sample A, 1 test] and 12.2 nM [sample A, mean of 5 tests] and 29.1 nM [sample B, 1 test] | TGI [3]: 1.82 µM [sample A, 1 test] and 990 nM [sample A, mean of 5 tests] and 13.5 µM [sample B, 1 test] | TGI [17]: 4.96 nM [sample A, 1 test] and 577 nM [sample A, mean of 4 tests] and 19.9 µM [sample B, 1 test] | GI50 [4]: 0.445 nM [sample A, 1 test] and 2.54 nM [sample A, mean of 3 tests] and 20.4 nM [sample B, 1 test] | TGI [4]: 2.78 nM [sample A, 1 test] and 9.68 nM [sample A, mean of 3 tests] and 69.1 nM [sample B, 1 test] | GI50 [18]: 5.33 nM [sample A, 1 test] and 32.9 nM [sample A, mean of 2 tests] and 58.8 nM [sample A, mean of 5 tests] and 207 nM [sample B, 1 test] | TGI [18]: 27.1 nM [sample A, 1 test] and 102 nM [sample A, mean of 2 tests] and 157 nM [sample A, mean of 5 tests] and 407 nM [sample B, 1 test] | GI50 [19]: 0.513 nM [1 test] and 11.4 nM [mean of 4 tests] | TGI [19]: 3.13 nM, 68.3 nM, 185 nM | GI50 [20]: 1.87 nM [sample A, 1 test] and 27.1 nM [sample A, mean of 2 tests] and 84.7 nM [sample A, mean of 5 tests] and 27.9 nM [sample B, mean of 2 tests] | TGI [20]: 5.7 nM [sample A, 1 test] and 136 nM [sample A, mean of 2 tests] and 327 nM [sample A, mean of 5 tests] and 103 nM [sample B, mean of 2 tests] | GI50 [21]: 6.23 nM [1 test] and 1.35 µM [mean of 2 tests] | TGI [21]: 19 nM, 1.04 µM, 4.8 µM [sample A] and 1.09 µM [sample B] | GI50 [22]: 2.36 nM [sample A, 1 test] and 48.5 nM [sample A, mean of 2 tests] and 50.1 nM [sample A, mean of 3 tests] and < 13.4 nM [sample B, mean of 2 tests] | TGI [22]: 248 nM [mean of 2 tests] and 5.06 µM [mean of 3 tests] | GI50 [23]: 3.23 nM [sample A, 1 test] and < 15 nM [sample A, mean of 2 tests] and 24.1 nM [sample A, mean of 5 tests] and < 10 nM [sample B, mean of 2 tests] | GI50 [24]: 2.42 nM, 29.3 nM [1 test] and 45.1 nM [mean of 5 tests] | TGI [24]: 6.54 nM, 53.1 nM [1 test] and 144 nM [mean of 5 tests] | TGI [25]: 13.8 nM, 263 nM, 159 nM [sample A] and 181 nM [sample B] | TGI [26]: 4.28 nM, 165 nM, 35.7 nM | TGI [27]: 19.6 nM, 124 nM, 89.6 nM [sample A] and 82.6 nM [sample B] | GI50 [28]: 3 nM [1 test] and 1.37 µM [mean of 2 tests] | TGI [28]: 19.9 nM, 425 nM, 3.5 µM | GI50 [29]: 0.664 nM [sample A, 1 test] and 29.7 nM [sample A, mean of 4 tests] and < 10 nM [sample B, 1 test] | TGI [29]: 6.77 nM, 150 nM [sample A, 1 test] and 294 nM [sample A, mean of 4 tests] and 126 nM [sample B, 1 test] | GI50 [30]: 2.47 nM [1 test] and 24.6 nM [mean of 2 tests] and 27.6 nM [mean of 4 tests] | TGI [31]: 19.2 nM, 349 nM, 1.18 µM [sample A] and 1.94 µM [sample B] | GI50 [32]: 2.82 nM, 54.2 nM [sample A, 1 test] and < 10 nM [sample B, 1 test] | GI50 [33]: 3.43 nM, 135 nM [sample A, 1 test] and 51.5 nM [sample B, 1 test] | TGI [33]: 35.5 nM, 491 nM [sample A, 1 test] and 525 nM [sample B, 1 test] | TGI [34]: 5.49 nM, 82.1 nM, 42.9 nM [sample A] and 65.5 nM [sample B] | GI50 [35]: 0.686 nM, 19.9 nM, 22.4 nM [sample A, 1 test] and < 10 nM [sample B, mean of 2 tests] | TGI [35]: 1.02 µM, 11 µM [sample A, 1 test] and 13 µM [sample B, mean of 2 tests] | GI50 [2]: 13.3 nM and 165 nM | GI50 [36]: 2.57 nM, 59.6 nM [sample A, 1 test] and 31.8 nM [sample B, 1 test] | TGI [36]: 7.2 nM and 286 nM | GI50 [37]: 1.71 nM [sample A, 1 test] and 17 nM [sample A, mean of 2 tests] and 45.2 nM [sample A, mean of 4 tests] and 14.5 nM [sample B, 1 test] | TGI [37]: 3.56 nM [sample A, 1 test] and 37.5 nM [sample A, mean of 2 tests] and 129 nM [sample A, mean of 4 tests] and 58.6 nM [sample B, 1 test] | GI50 [38]: 2.15 nM, 259 nM [sample A, 1 test] and 101 nM [sample A, mean of 5 tests] and 50.1 nM [sample B, 1 test] | TGI [38]: 10.3 µM [sample A, 1 test] and 4.79 µM [sample A, mean of 5 tests] and > 100 µM [sample B, 1 test] | TGI [39]: 42.1 nM, 468 nM, 113 nM [sample A] and 2.4 µM [sample B] | TGI [40]: 0.488 nM, 150 nM [sample A] and 13.7 nM [sample B] | TGI [41]: 30.5 nM, 2.11 µM, 56.3 nM [sample A] and 829 nM [sample B]

S=c1nc[nH]c2nc[nH]c12
TGI [14]: > 734 µM, > 750 µM [sample A] and 32.7 µM [sample B] | GI50 [35]: 9.2 µM [sample A, mean of 2 tests] and 371 nM [sample B, 1 test] | TGI [40]: 168 µM, 53.9 µM [sample A] and 10.7 µM [sample B]

CN(C)CCNC(=O)c1cccc2cc([N+](=O)[O-])ccc12
GI50 [8]: 1.37 µM [sample A, 1 test] and 118 nM [sample B, 1 test] | TGI [8]: 5.03 µM [sample A, 1 test] and 473 nM [sample B, 1 test] | GI50 [17]: 1.02 µM [sample A, 1 test] and 21.4 nM [sample B, 1 test] | TGI [22]: 12.2 µM [sample A, 1 test] and 347 nM [sample B, 1 test] | TGI [42]: 12.1 µM [sample A, 1 test] and 320 nM [sample B, 1 test] | TGI [27]: 7.19 µM [sample A, 1 test] and 310 nM [sample B, 1 test] | TGI [1]: 11.4 µM [sample A, 1 test] and 849 nM [sample B, 1 test] | GI50 [2]: 1.91 µM [sample A, 1 test] and 163 nM [sample B, 1 test] | GI50 [43]: 1.9 µM [sample A, 1 test] and 126 nM [sample B, 1 test] | TGI [43]: 4.09 µM [sample A, 1 test] and 340 nM [sample B, 1 test] | GI50 [37]: 2.91 µM [sample A, 1 test] and 162 nM [sample B, 1 test] | TGI [37]: 26.2 µM [sample A, 1 test] and 419 nM [sample B, 1 test] | GI50 [39]: 2.01 µM [sample A, 1 test] and 189 nM [sample B, 1 test] | TGI [39]: 38.9 µM [sample A, 1 test] and 1.22 µM [sample B, 1 test] | GI50 [41]: 2.76 µM [sample A, 1 test] and 198 nM [sample B, 1 test] | TGI [5]: 77.8 µM [sample A, 1 test] and 1.31 µM [sample B, 1 test]

From PubChem BioAssay (NCI)
